Experimental data: the supplement of paper PMC7826260
This is one part of the list. Each Rep nickase domain was tested in vitro on the same pool of single strands for 1 h at 37 °C with 3 µM enzyme; only the middle of the 90-letter strands is printed. Values are log2 of uncut reads against the no-enzyme pool; uncut sequences lie near 0, cut ones below; no hit call is given. Reads are scaled to the total; values above 0 arise when much of the pool is cut.

Tests used:
Experiment in all cases: uncleaved DNA left, log2 of reads against the no-enzyme library (log2 ratio); higher = less cleavage (more negative = more Rep cleavage of the k-mer); sequences stand for … in CTCGTCCG…ACCGGAGA
[1] = system: T1, Rep nickase domain of Muscovy duck circovirus
T1 sequence (Rep 1-111, printed without the tag): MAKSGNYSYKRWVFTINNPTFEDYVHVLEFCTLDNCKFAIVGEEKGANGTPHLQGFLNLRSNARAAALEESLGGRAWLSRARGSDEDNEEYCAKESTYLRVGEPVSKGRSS
Procedure: (§1)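 A pool of 90-nt single-stranded DNAs with seven random bases just before the constant AC of the nick site (name = the seven bases) was cut by 3 µM recombinant His6-SUMO-tagged Rep nickase domain (300 nM DNA, 50 mM HEPES pH 8.0, 50 mM NaCl, 1 mM MnCl2, 1 h, 37 °C, three replicates). Uncut DNA was amplified and sequenced.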

[2] = system: T2, Rep nickase domain of banana bunchy top virus
T2 sequence (Rep 1-94, printed without the tag): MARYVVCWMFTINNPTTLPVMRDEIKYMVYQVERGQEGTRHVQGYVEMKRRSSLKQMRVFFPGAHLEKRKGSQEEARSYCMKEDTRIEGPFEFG
Procedure: as §1

[3] = system: T3, Rep nickase domain of cabbage leaf curl virus
T3 sequence (Rep 1-116, printed without the tag): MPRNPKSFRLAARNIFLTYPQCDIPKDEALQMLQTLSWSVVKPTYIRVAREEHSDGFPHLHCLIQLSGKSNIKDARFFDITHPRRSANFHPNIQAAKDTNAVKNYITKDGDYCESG
Procedure: as §1

[4] = system: T4, Rep nickase domain of chickpea chlorotic dwarf virus
T4 sequence (Rep 1-124, printed without the tag): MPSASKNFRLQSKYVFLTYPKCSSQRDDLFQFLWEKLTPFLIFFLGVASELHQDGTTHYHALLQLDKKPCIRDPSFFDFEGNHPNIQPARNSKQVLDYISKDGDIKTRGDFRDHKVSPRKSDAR
Procedure: as §1

[5] = system: T5, Rep nickase domain of faba bean necrotic yellows virus
T5 sequence (Rep 1-98, printed without the tag): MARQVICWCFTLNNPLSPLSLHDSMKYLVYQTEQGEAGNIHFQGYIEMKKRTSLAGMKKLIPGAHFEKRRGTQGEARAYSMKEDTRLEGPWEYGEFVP
Procedure: as §1

[6] = system: T6, Rep nickase domain of maize striate mosaic virus
T6 sequence (Rep 1-117, printed without the tag): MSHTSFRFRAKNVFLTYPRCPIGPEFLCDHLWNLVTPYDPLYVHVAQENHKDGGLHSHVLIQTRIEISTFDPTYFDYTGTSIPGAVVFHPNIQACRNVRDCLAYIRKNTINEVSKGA
Procedure: as §1

[7] = system: T7, Rep nickase domain of porcine circovirus 2
T7 sequence (Rep 2-116, printed without the tag): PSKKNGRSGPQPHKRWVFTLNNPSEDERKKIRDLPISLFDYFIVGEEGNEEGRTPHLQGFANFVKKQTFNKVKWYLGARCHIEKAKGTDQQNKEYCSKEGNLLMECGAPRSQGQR
Procedure: as §1

[8] = system: T8, Rep nickase domain of tomato golden mosaic virus
T8 sequence (Rep 1-124, printed without the tag): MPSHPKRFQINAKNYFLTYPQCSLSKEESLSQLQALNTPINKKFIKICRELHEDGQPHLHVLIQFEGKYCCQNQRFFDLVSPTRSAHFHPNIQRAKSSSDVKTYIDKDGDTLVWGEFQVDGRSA
Procedure: as §1

[9] = system: T9, Rep nickase domain of tomato yellow leaf curl virus
T9 sequence (Rep 1-136, printed without the tag): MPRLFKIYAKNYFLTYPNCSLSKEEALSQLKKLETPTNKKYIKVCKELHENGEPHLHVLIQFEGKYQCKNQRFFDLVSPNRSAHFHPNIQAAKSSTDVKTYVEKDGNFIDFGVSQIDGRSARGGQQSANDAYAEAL
Procedure: as §1

[10] = system: T10, Rep nickase domain of wheat dwarf virus
T10 sequence (Rep 1-137, printed without the tag): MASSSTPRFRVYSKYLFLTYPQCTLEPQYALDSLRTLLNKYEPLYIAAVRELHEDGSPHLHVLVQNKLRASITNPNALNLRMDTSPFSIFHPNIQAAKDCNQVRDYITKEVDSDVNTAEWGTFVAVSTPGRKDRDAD
Procedure: as §1

Sequence | uncleaved DNA left (log2) [1] | uncleaved DNA left (log2) [2] | uncleaved DNA left (log2) [3] | uncleaved DNA left (log2) [4] | uncleaved DNA left (log2) [5] | uncleaved DNA left (log2) [6] | uncleaved DNA left (log2) [7] | uncleaved DNA left (log2) [8] | uncleaved DNA left (log2) [9] | uncleaved DNA left (log2) [10]
CACTTGT | -0.638 | -1.06 | -0.437 | -1.23 | 0.0614 | -0.87 | -3.55 | -0.177 | -0.0586 | -0.0956
TTCCTGT | -0.0597 | -0.0354 | 0.0488 | -0.447 | -0.0134 | -0.241 | 0.000939 | -0.183 | -0.0791 | -0.0745
GTGTTCC | -0.0684 | 0.013 | 0.281 | 0.829 | -0.0751 | 1.85 | -0.0392 | 0.155 | -0.0275 | 0.0129
CTGCTGC | 0.0141 | -0.0378 | -0.15 | -0.0378 | 0.145 | -0.353 | 0.271 | -0.023 | 0.000186 | 0.0394
TTGTAGG | 0.114 | 0.0181 | 0.347 | 1.04 | 0.0545 | 1.05 | 0.118 | 0.0364 | -0.0418 | 0.0521
AGTCTCC | -0.103 | -0.176 | 0.118 | 0.383 | -0.0658 | 1.26 | -0.062 | -0.0805 | -0.1 | -0.0878
ATATATA | 0.0412 | -0.0413 | -0.146 | -1.86 | -0.00535 | -0.652 | -0.146 | -0.00463 | -0.0245 | -0.00522
GGGGAAC | 0.00268 | 0.116 | 0.758 | 1.79 | -0.0168 | 2.25 | 0.189 | 0.0873 | -0.0255 | 0.139
AGGCTAC | 0.0827 | 0.0223 | 0.0501 | -0.931 | 0.0442 | 0.289 | -0.03 | -0.000798 | 0.0453 | 0.0649
GCCTTTT | -1.57 | 0.202 | 0.22 | -0.981 | 0.157 | 0.347 | -2.61 | 0.0555 | -0.000756 | -0.0306
TCGAGAA | 0.0934 | 0.0336 | 0.439 | 0.53 | 0.139 | 0.2 | -0.434 | 0.0269 | 0.0263 | 0.0523
ATAGCTT | 0.0364 | -0.106 | 0.0136 | -1.12 | -0.063 | 0.382 | 0.0285 | 0.088 | -0.196 | -0.000365
TAACTAA | 0.0579 | 0.109 | -0.408 | -2.55 | 0.148 | -0.418 | 0.106 | 0.0631 | 0.207 | 0.00306
ACTGCCC | 0.103 | -0.0275 | 0.0638 | 0.441 | 0.00492 | 0.229 | 0.0304 | 0.0797 | 0.0341 | -0.00705
CAACGTG | 0.0568 | 0.167 | -0.531 | -0.911 | 0.12 | -1.07 | 0.186 | 0.102 | 0.243 | -0.0175
AGAACTT | -0.0652 | -0.026 | 0.327 | 0.445 | -0.0745 | 1.3 | -0.263 | -0.126 | -0.121 | 0.0192
ATTGATA | -0.0362 | -0.0584 | -0.143 | -0.234 | 0.0281 | 0.00732 | -0.0688 | 0.0344 | 0.0725 | 0.0383
GTCCCTG | 0.0414 | 0.0371 | 0.195 | 0.816 | -0.0601 | 1.68 | 0.126 | 0.0156 | -0.0384 | 0.00176
ACAGGAC | 0.148 | 0.153 | 0.479 | 1.36 | 0.0153 | 1.04 | 0.315 | 0.175 | 0.0877 | 0.189
GTACTAG | 0.0919 | 0.0329 | -0.173 | -0.24 | 0.049 | -0.6 | 0.0905 | 0.137 | 0.105 | 0.0678
ATCGTAG | 0.133 | 0.0608 | -0.666 | -0.603 | 0.0603 | -1.28 | 0.366 | 0.0955 | 0.102 | 0.0308
CTTGTTG | 0.0138 | 0.0467 | -0.71 | -0.696 | 0.0685 | -1.15 | 0.0568 | -0.122 | -0.0056 | -0.298
GCTGACT | 0.153 | 0.0869 | 0.0865 | 0.414 | -0.085 | 0.831 | 0.22 | 0.087 | -0.0412 | 0.0731
CTGGTCG | -0.0834 | -0.128 | -0.898 | -0.359 | -0.082 | -1.01 | 0.0212 | -0.173 | -0.119 | -0.212
TGCCAAC | -0.0706 | -0.0509 | 0.291 | 0.118 | -0.0901 | 1 | -0.0849 | -0.0312 | -0.147 | -0.00899
AGATCTT | -2.56 | -0.0867 | 0.361 | -0.396 | -0.0195 | 1.1 | -2.9 | -0.173 | 0.00767 | -0.136
CCAGAAG | 0.0839 | 0.145 | -0.506 | -0.247 | 0.254 | -0.954 | 0.247 | 0.031 | 0.0657 | -0.00608
GGAGCTA | 0.0811 | 0.154 | 0.715 | 1.58 | 0.0707 | 2.03 | 0.149 | 0.0728 | 0.0766 | 0.319
GACGAAC | 0.0177 | 0.000923 | -0.0364 | 0.438 | -0.00644 | 0.228 | 0.131 | -0.111 | 0.0636 | 0.0807
CAGCTAA | -0.00345 | 0.1 | -0.129 | -0.754 | -0.0809 | -0.305 | -0.172 | 0.0185 | -0.0646 | 0.031
